# This is one part of the list.
# B1: PhoQ; a variant is named by its letters at X, in order, P23837 (parent)
# chain: MKKLLRLFFPLSLRVRFLLATAAVVLVLSLAYGMVALIGYSVSFDKTTFRLLRGESNLFYTLAKWENNKLHVELPENIDKQSPTMTLIYDENGQLLWAQRDVPWLMKMIQPDWLKSNGFHEIEADVNDTSLLLSGDHSIQQQLQEVREDDDDAEMTHSVAVNVYPATSRMPKLTIVVVDTIPVELKSSYMVWSWFIYVLSANLLLVIPLLWVAAWWSLRPIEALAKEVRELEEHNRELLNPATTRELTSLVRNLNRLLKSERERYDKYRTTLTDLTHSLKTPLXXLQXXLRSLRSEKMSVSDAEPVMLEQISRISQQIGYYLHRASMRGGTLLSRELHPVAPLLDNLTSALNKVYQRKGVNISLDISPEISFVGEQNDFVEVMGNVLDNACKYCLEFVEISARQTDEHLYIVVEDDGPGIPLSKREVIFDRGQRVDTLRPGQGVGLAVAREITEQYEGKIVAGESMLGGARMEVIFGRQHSAPKDE
# Variants of: B1
# Experiment: enrichment ratio after two sorts for PhoP signalling (ratio (wild type AVST 3.29)); higher = more functional
# Conditions: with PhoP (E. coli)
row,Variant,enrichment ratio
1,EMII,≤ 0.25
2,IKHQ,≤ 0.25
3,FIIK,≤ 0.25
4,MSSL,9.59
5,SAHT,≤ 0.25
6,VVVF,≤ 0.25
7,NLMF,≤ 0.25
8,VVCQ,≤ 0.25
9,DLRD,≤ 0.25
10,KRTF,≤ 0.25
11,WIPR,≤ 0.25
12,RVIN,≤ 0.25
13,EFPM,≤ 0.25
14,WKYY,≤ 0.25
15,TICC,2.66
16,HGYK,≤ 0.25
17,LGMY,≤ 0.25
18,NPHC,≤ 0.25
19,VTCQ,6.57
20,AIMP,≤ 0.25
21,IQNV,≤ 0.25
22,DCQW,≤ 0.25
23,TGMY,12.7
24,KQVI,≤ 0.25
25,EVRL,≤ 0.25

row,Variant,enrichment ratio
1,QRWF,≤ 0.25
2,SRTF,≤ 0.25
3,PSGR,≤ 0.25
4,HDIV,≤ 0.25
5,VDPE,≤ 0.25
6,WEWC,≤ 0.25
7,RDHI,≤ 0.25
8,RCAA,≤ 0.25
9,FWAI,≤ 0.25
10,IYWS,≤ 0.25
11,WPTD,≤ 0.25
12,VLDW,≤ 0.25
13,IKYE,≤ 0.25
14,TRNA,0.827
15,DTHL,≤ 0.25
16,IYVP,≤ 0.25
17,GHLA,≤ 0.25
18,SCFY,≤ 0.25
19,NSGW,≤ 0.25
20,TNVK,≤ 0.25
21,QHLM,≤ 0.25
22,QSKT,≤ 0.25
23,AKPV,≤ 0.25
24,RDMV,≤ 0.25
25,WYED,≤ 0.25

row,Variant,enrichment ratio
1,NMVA,≤ 0.25
2,RGAE,≤ 0.25
3,HTTS,≤ 0.25
4,QNPY,≤ 0.25
5,YSGR,≤ 0.25
6,VYKY,≤ 0.25
7,RFCA,≤ 0.25
8,IIHN,≤ 0.25
9,NASE,≤ 0.25
10,HTDQ,≤ 0.25
11,LHIQ,≤ 0.25
12,GQIT,≤ 0.25
13,LEDV,≤ 0.25
14,PWTW,≤ 0.25
15,NWMA,≤ 0.25
16,NNAM,≤ 0.25
17,VTCD,≤ 0.25
18,QMNT,≤ 0.25
19,IPKD,≤ 0.25
20,SRDE,≤ 0.25
21,FWFP,≤ 0.25
22,RFLV,≤ 0.25
23,GVAI,≤ 0.25
24,SGYC,0.294
25,SAES,≤ 0.25

row,Variant,enrichment ratio
1,GMGQ,≤ 0.25
2,CQMP,≤ 0.25
3,INRA,≤ 0.25
4,KSDS,≤ 0.25
5,HTDE,≤ 0.25
6,MDRH,≤ 0.25
7,HSGA,≤ 0.25
8,GSNN,≤ 0.25
9,QPGH,≤ 0.25
10,PYVY,≤ 0.25
11,LDWH,≤ 0.25
12,NRAE,≤ 0.25
13,TSAS,10.2
14,PGDD,≤ 0.25
15,CQHS,≤ 0.25
16,PYMS,≤ 0.25
17,RKCD,≤ 0.25
18,SPQA,≤ 0.25
19,RYMM,≤ 0.25
20,DGRH,≤ 0.25
21,PDPP,≤ 0.25
22,MMDI,≤ 0.25
23,VPFW,≤ 0.25
24,VEAN,≤ 0.25
25,ITDG,≤ 0.25

row,Variant,enrichment ratio
1,MNAV,2.67
2,MTGG,0.473
3,PPQP,≤ 0.25
4,MIIK,≤ 0.25
5,DFEF,≤ 0.25
6,RKIY,≤ 0.25
7,RSDC,≤ 0.25
8,YHNA,≤ 0.25
9,RVIT,≤ 0.25
10,ALFL,≤ 0.25
11,HSDI,≤ 0.25
12,VNCP,≤ 0.25
13,KFID,≤ 0.25
14,HEDV,≤ 0.25
15,YVPR,≤ 0.25
16,LCWV,≤ 0.25
17,QDQS,≤ 0.25
18,SCAC,10.6
19,QHPR,≤ 0.25
20,NKKL,≤ 0.25
21,RYHA,≤ 0.25
22,EDAC,≤ 0.25
23,RCMD,≤ 0.25
24,RYSY,≤ 0.25
25,HDVI,≤ 0.25

row,Variant,enrichment ratio
1,VNVH,0.711
2,KFNT,≤ 0.25
3,FDAW,≤ 0.25
4,QDLL,≤ 0.25
5,VRGN,≤ 0.25
6,EMHY,≤ 0.25
7,IGGI,≤ 0.25
8,DKFT,≤ 0.25
9,QRCW,≤ 0.25
10,YLIN,≤ 0.25
11,LRGF,≤ 0.25
12,KDER,≤ 0.25
13,FPLR,≤ 0.25
14,VSQA,≤ 0.25
15,RVFR,≤ 0.25
16,TNES,≤ 0.25
17,DDLP,≤ 0.25
18,DWRH,≤ 0.25
19,MVPQ,≤ 0.25
20,RQGM,≤ 0.25
21,WFLH,≤ 0.25
22,VRNA,≤ 0.25
23,FDFN,≤ 0.25
24,YHPG,≤ 0.25
25,QTEW,≤ 0.25

row,Variant,enrichment ratio
1,RLPM,≤ 0.25
2,WQPN,≤ 0.25
3,EFRK,≤ 0.25
4,YFFV,≤ 0.25
5,QFAD,≤ 0.25
6,AEIL,28.2
7,SYHP,≤ 0.25
8,YSEV,≤ 0.25
9,PRHS,≤ 0.25
10,ACAG,3.23
11,WVPD,≤ 0.25
12,MTSI,1.53
13,CSSM,≤ 0.25
14,RNQF,≤ 0.25
15,NDKL,≤ 0.25
16,MISW,≤ 0.25
17,PGLT,≤ 0.25
18,YNYW,≤ 0.25
19,TFKF,≤ 0.25
20,DHAK,≤ 0.25
21,SLYE,≤ 0.25
22,IPCD,≤ 0.25
23,VDHT,≤ 0.25
24,SFSV,≤ 0.25
25,VQIR,≤ 0.25

row,Variant,enrichment ratio
1,RCIT,≤ 0.25
2,NHMW,≤ 0.25
3,TIGM,21.8
4,TFGF,≤ 0.25
5,FSCM,16.6
6,QHAE,≤ 0.25
7,SCRI,≤ 0.25
8,SPES,≤ 0.25
9,RRGK,≤ 0.25
10,KPVH,≤ 0.25
11,EIQL,≤ 0.25
12,RRDQ,≤ 0.25
13,RLDY,≤ 0.25
14,GDAW,≤ 0.25
15,AQIT,0.538
16,IFPT,≤ 0.25
17,CYTP,≤ 0.25
18,KIFN,≤ 0.25
19,RWHD,≤ 0.25
20,KPRS,≤ 0.25

# Source: a collection of fitness landscapes (doi:10.1126/science.1257360)
